From PubChem BioAssay AID504832 (National Center for Advancing Translational Sciences (NCATS), 2011)
The campaign covered roughly 310,000 compounds. About 18,000 (5.8%) were called active. This list was built around the results that the source calls inconclusive (neither active nor inactive); the mix of calls is not that of the screen. The call rests on the fitted dose curve; in most records, active means well fitted inhibition curve with a large enough effect; inconclusive means small, poorly fitted or top-dose-only effect, or another doubt; inactive means no such curve, though single readings can be large or run the other way. Potencies of inconclusive entries are left out as doubtful fits.

test: Primary qHTS for delayed death inhibitors of the malarial parasite plastid, 48 hour incubation; details: P. falciparum luciferase growth in erythrocytes; series mostly up to 28.7 µM; activity change, negative = inhibition: at the top concentration
Method in brief: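 Cell-based growth assay: transgenic P. falciparum expressing firefly luciferase, cultured in red cells within RPMI 1640 containing 0.5% w/v Albumax, 24 mM bicarbonate and gentamycin. A drop in luciferase activity indicates inhibition.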
On the % scale 0 is the no-effect control and ±100 the full control effect; potency means the concentration at half of the fitted maximal effect; tags describe the fitted curve by direction and shape.

SMILES | activity change, negative = inhibition | Potency
Cc1ccc(/C(N)=N/OC(=O)Cc2cccc3ccccc23)cc1 | inactive: -7.14% | 
CCCN1CCC(=O)N([C@H](CSc2ccccc2)Cc2ccccc2)CC1 |  | inconclusive [inhibitor, single point]
Cc1ccc(NC(=O)Nc2cnccn2)c(C)c1 |  | inconclusive [inhibitor, full curve, poor fit]
CCCCOC(=O)c1ccc(NC(=O)c2cc(Cl)ccc2OC)cc1 |  | inconclusive [inhibitor, single point]
CC(C)CCNC(=O)c1c[nH]c2ccc(S(=O)(=O)N3CCOCC3)cc2c1=O |  | inconclusive [inhibitor, single point]
COc1ccc(C(=O)NC(=S)N(C)Cc2ccccc2)cc1Br |  | inconclusive [inhibitor, single point]
S=C(NC1CCCCC1)N1CCN(c2ccccn2)CC1 | inactive: -13.9% | 
Cc1ccc(-n2ncc(C#N)c2N)cc1 | inactive: 2.56% | 
Cn1cccc1C(=O)OCC(=O)N1CC(=O)Nc2ccccc21 |  | inconclusive [inhibitor, partial curve]
Cc1ccccc1NC(=O)CCC(=O)N/N=C/c1ccncc1 |  | inconclusive [inhibitor, full curve, poor fit]
CC1(C)CC(=O)C(C=NCCc2ccc(O)cc2)=C(O)C1 | inactive: -13.9% | 
c1ccc(C(Cc2nc(-c3ccncc3)no2)c2ccccc2)cc1 |  | active: 7.38 µM
Cc1ccccc1NC(=O)C(=O)NNC(=O)COc1ccc2ccccc2c1 | inactive: 37.9% | 
O=C(CP(=O)(O)CC(=O)c1ccccc1)c1ccccc1 | inactive: 11.4% | 
Cc1ccc(Nc2nc(-c3cccnc3)nc3ccccc23)cc1 |  | active: 14.7 µM
CC(=O)c1cc2c(cc1NC(=O)CSc1ccc(S(=O)(=O)N(C)C)cn1)OCO2 |  | inconclusive [inhibitor, single point]
COc1cc(OC)cc(C(=O)N2CCN(c3ccccc3F)CC2)c1 | inactive: -13.1% | 
CC(=O)NS(=O)(=O)c1ccc2c(c1)Cc1cc(S(=O)(=O)NC(C)=O)ccc1-2 | inactive: 20.5% | 
CC(=O)C(C)Oc1ccc2c3c(c(=O)oc2c1C)CCCC3 (centres undefined) |  | active: 9.28 µM
Cc1ccccc1-n1c(C)cc(/C=C(\C#N)C(=O)NCC2CCCO2)c1C (centres undefined) | inactive: -77.5% | 
O=C1CN(C(=O)N[C@@H](Cc2ccccc2)C(=O)N[C@@H](Cc2ccccc2)C(=O)O)c2ccccc2N1 |  | inconclusive [inhibitor, partial curve, poor fit]
Oc1cc(Nc2ccccc2)cc2cccnc12 |  | active: 2.08 µM
CCc1c(C)nc2ccc(Br)cc2c1Cl | inactive: 2.13% | 
Cc1nc(-c2cccc(NC(=O)c3ccc(-n4nccc4C)cc3)c2)cs1 | inactive: 14.6% | 
COc1cccc(CN2CCN(Cc3ccc(OC)c(OC)c3)CC2CCO)c1 (centres undefined) | inactive: -5.26% | 

SMILES | activity change, negative = inhibition | Potency
O=c1c(C=NCC2CCCO2)c(-c2ccccc2)[nH]n1-c1ccc([N+](=O)[O-])cc1 (centres undefined) |  | inconclusive [inhibitor, partial curve, poor fit]
CCN(CC)CCn1c2c(c(SCC(=O)Nc3nc(C)cs3)nc1=O)CCCC2 |  | inconclusive [inhibitor, partial curve]
CCCCC(=O)Nc1nc(C)c(-c2csc(Nc3ccccc3OC)n2)s1 |  | inconclusive [inhibitor, partial curve]
O=C(c1ccc(CNS(=O)(=O)c2ccc(Br)cc2)cc1)N1CCCCCC1 | inactive: -0.829% | 
CCCOc1cc(C)c(S(=O)(=O)NC2CC(C)(C)NC(C)(C)C2)cc1C |  | inconclusive [inhibitor, single point]
C=CCN(C(=O)c1ccc2snnc2c1)c1ccccc1 | inactive: -4.99% | 
CN1C(CC(=O)Nc2ccc(Cl)cc2Cl)c2ccccc2CC1(C)C (centres undefined) |  | inconclusive [inhibitor, single point]
NC(=S)Cc1nc(-c2ccccc2)cs1 |  | inconclusive [inhibitor, single point]
COc1ccc(C(=O)N/C(=C/c2ccco2)C(=O)NC2CCS(=O)(=O)C2)cc1 (centres undefined) | inactive: 20.4% | 
Fc1ccc(N2CCN(c3ccc4c(C(F)(F)F)cc(C(F)(F)F)nc4n3)CC2)cc1 |  | inconclusive [inhibitor, single point]
COC(=O)C1CCN(C(=O)COC(=O)C2CCN(S(=O)(=O)c3ccc4c(c3)OCCO4)CC2)CC1 |  | inconclusive [inhibitor, single point]
CCN(CC)C(=O)COc1ccc(-c2nnc(Nc3ccc(OC)c(C(=O)NC)c3)c3ccccc23)cc1 |  | inconclusive [inhibitor, full curve]
CCOC(=O)N/N=C/c1ccc(OC)c(O)c1 | inactive: 53.5% | 
COc1cc2cc(CN(CCc3ccccc3C)C(=S)NCCCN(C)C)c(=O)[nH]c2cc1OC |  | active: 13.1 µM
O=C1CN(C(=O)CSc2nc3ccccc3c(=O)n2CCCN2CCOCC2)c2ccccc2N1 |  | inconclusive [inhibitor, single point]
COc1ccc(OC)c(N/C=C/C(=O)c2ccccc2)c1 |  | inconclusive [inhibitor, partial curve, poor fit]
COc1cccc(OC)c1OCCCCN1CCCCC1 |  | inconclusive [inhibitor, single point]
COC(=O)CCCC1=CC2=CC(=O)C(C)(OC(=O)c3cccs3)C(=O)C2=CN1Cc1ccc2c(c1)OCO2 (centres undefined) |  | active: 13.1 µM
CCS(=O)(=O)N1CCC(C(=O)Oc2ccc(C)c(C)c2)CC1 | inactive: 5.26% | 
CNCCC(Oc1ccccc1C)c1ccccc1 (centres undefined) |  | inconclusive [inhibitor, partial curve, poor fit]
CCc1ccc(NC(=O)CS(=O)CC(=O)NCC2OCCc3ccccc32)cc1 (centres undefined) | inactive: 0% | 
O=C(C1CCN(S(=O)(=O)c2cccc3cccnc23)CC1)N1CCN(C2CCCCC2)CC1 |  | inconclusive [inhibitor, single point]
CCOc1ccccc1NC(=O)c1cccc(NC(=O)CC(c2ccccc2)c2ccccc2)c1 |  | inconclusive [inhibitor, single point]
CCCCOc1ccc(C(=O)NCC(=O)NC2CCN(Cc3ccccc3)CC2)cc1 |  | inconclusive [inhibitor, single point]
CC(=O)N1CCN2C(=O)C1CCCC(=O)c1cc(C)ccc12 (centres undefined) | inactive: -17.6% | 

SMILES | activity change, negative = inhibition | Potency
O=C(NC1CC2CCCC(C1)N2C(=O)NC1CCCCC1)c1ccc(F)cc1 (centres undefined) |  | inconclusive [inhibitor, partial curve]
Cc1sc2ncnc(N=Nc3c(O)[nH]c4ccccc34)c2c1C |  | inconclusive [inhibitor, single point]
C=CCn1c(Cc2c[nH]c3ccccc23)n[nH]c1=S |  | active: 13.1 µM
N#CCCn1nc(-c2ccc(Br)cc2)cc1Nc1ccccc1NC(=O)C(F)(F)F |  | inconclusive [inhibitor, partial curve, poor fit]
CCOC(=O)C1NN=C(C(=O)c2ccc(C)cc2)C1c1ccc(C)cc1 (centres undefined) |  | inconclusive [inhibitor, single point]
O=C(NC1CCCCC1)c1ccc2c(c1)OCO2 | inactive: 156% | 
CC1CN(CCOCCOc2ccccc2-c2ccccc2)CC(C)O1 (centres undefined) |  | inconclusive [inhibitor, single point]
Cc1ccc2[nH]c(=O)c(CN(CCCN(C)C)C(=O)Nc3ccc(F)cc3)cc2c1 |  | inconclusive [inhibitor, single point]
CCN(Cc1nc(-c2ccc(OC)c(OC)c2)no1)C(=O)c1ccoc1C | inactive: -2.03% | 
Cc1ccc(NC(=O)C(=O)NCCN2CCN(C(=O)C(c3ccccc3)c3ccccc3)CC2)cc1 |  | inconclusive [inhibitor, full curve]
COc1cc(OC)c(NC(=O)CCNS(=O)(=O)c2ccc3c(c2)CC(C)N3C(C)=O)cc1Cl (centres undefined) | inactive: -26.8% | 
O=C(CSc1ccccn1)Nc1ccc2c(c1)C(=O)c1ccccc1C2=O | inactive: 164% | 
CCc1ccc(C(=O)C(C)OC(=O)c2cccc(S(=O)(=O)N3CCOCC3)c2)cc1 (centres undefined) |  | inconclusive [inhibitor, single point]
CC(C)(CO)NC(=S)NCc1ccco1 |  | inconclusive [inhibitor, single point]
COc1ccc(OCc2cc(C(=O)N3CCC(OC)CC3)no2)c2ccccc12 | inactive: -8.9% | 
O=C(CN1CCOCC1)NN=C1CCCCCCCCCCC1 | inactive: 10.7% | 
CCCCOc1ccc(C(=O)NCC(=O)NC2CCCCC2)cc1 | inactive: -23.2% | 
CC(C)(C)OC(=O)[C@H](Cc1ccccc1)NC(=O)c1nc[nH]c1C(=O)NCC(=O)OCc1ccccc1 | inactive: 77.2% | 
CCC(=O)Nc1cccc(NC(=S)NC(=O)c2ccccc2C)c1 |  | inconclusive [inhibitor, full curve, poor fit]
COc1cc(Nc2nc3ccccc3nc2NS(=O)(=O)c2ccc([N+](=O)[O-])cc2)cc(OC)c1OC |  | inconclusive [inhibitor, partial curve, poor fit]
C#CCOCCOCCOCCNc1nc(N2CCN(C(=O)[C@H](C)n3cc(CCCN=C(N)N)nn3)CC2)nc(N2CCN(C(=O)[C@H](C)n3cc(CCCN=C(N)N)nn3)CC2)n1 |  | inconclusive [inhibitor, full curve]
O=C1Nc2ccccc2C1Cc1ccccc1 (centres undefined) | inactive: 6.7% | 
CN(C)CCCNC(=S)NCCNc1nc2cc3c(cc2cc1C#N)OCO3 |  | inconclusive [inhibitor, partial curve]
CC1CCN(S(=O)C23CC4CC(CC(C4)C2)C3)CC1 (centres undefined) | inactive: -1.73% | 
